Measurements as given in ChEMBL document CHEMBL1201862, “PubChem BioAssay data set” (2004).
Structures can show the parent of a compound that is named as a salt.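 Step 1: Grow cells in 96-well plates. Step 2: Expose to compound for 48 hours at 5 concentrations. Step 3: Interpolate endpoints linearly; if unreached, use highest concentration. GI50 marks 50% less growth.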 Activity calls are given as the source filed them. No stated cut-off is given here; in the data, active = GI50 up to about 1.1 µM and inactive = higher.

Each compound was assayed on NCI-H322M (assay: NCI anticancer screen, dose series, 48 h).
With `NC(=O)NC(=O)Nc1ccc(Br)cc1` the GI50 was inactive: > 27.5 µM. `CO[C@]12S[C@@H]3CCCC[C@@]31C(C)(C)C(=O)N2c1ccccc1` was tested, and the GI50 was inactive: > 100 µM. For `COc1cc2c(cc1OC)C(C(CO)CO)N(CC(O)CCl)CC2` (stereo unspecified), the GI50 was inactive: > 100 µM. In the case of `Oc1c(O)c(Cc2ccccc2)c(Cc2ccccc2)c(Cc2ccccc2)c1Cc1ccccc1`, the GI50 is reported as inactive: > 10 µM. With `Cc1ccccc1OC(C)C(=O)NN1C(=O)CSC1c1ccccc1` (stereo unspecified) the GI50 was inactive: 84.7 µM. In the case of `COc1ccc([C@H]2CC(=O)NCCCCN2)cc1`, the GI50 is reported as inactive: > 100 µM. `CCCCC1=C(Br)C(=C(Br)Br)OC1=O` was tested, and the GI50 was inactive: 9.06 µM. For `O=C(NNC(=O)c1ccc(Cl)cc1NC(=O)C12CC3CC(CC(C3)C1)C2)c1ccc(Cl)cc1`, the GI50 was inactive: 22.8 µM. For `O=c1n(CC2CO2)c(=O)n(CC2CO2)c(=O)n1CC1CO1` (stereo unspecified) [TEROXIRONE], the GI50 was inactive: 57.7 µM. With `COc1ccc2oc(-c3cc4cc(OC)ccc4o3)cc2c1` the GI50 was inactive: > 100 µM. `CCOC(=O)c1[nH]c(Br)c(-c2ccc(OC)c(OC)c2)c1Br` was tested, and the GI50 was inactive: > 10 µM. With `CN(C)CCc1ccnc2nc(-c3ccc4ccccc4c3)cn12` the GI50 was inactive: > 100 µM. For `CC12CCC(/C(=N/c3cc(C(F)(F)F)cc(C(F)(F)F)c3)C1=O)C2(C)C` (stereo unspecified), the GI50 was inactive: 55.3 µM. In the case of `COc1cc(C(C)O)c(S(=O)(=O)CC(C)O)nn1` (stereo unspecified), the GI50 is reported as inactive: > 100 µM. With `COC(=O)C1=Cc2cc(OC)c(OC)cc2[C@H](c2ccc(OC)c(OC)c2)C1C(=O)OC` (stereo partly specified) the GI50 was inactive: > 100 µM. `COC(=O)C1(C)C=C(Nc2ccccc2)C(=O)N1c1ccccc1` (stereo unspecified) was tested, and the GI50 was inactive: > 100 µM. With `C/C(=N\NC(=O)c1ccncc1)c1ccccc1Cl` the GI50 was inactive: > 100 µM. For `CCN(CC)CC1CCCCN1CC(=O)N1c2ccccc2NC(=O)CC1C` (stereo unspecified), the GI50 was inactive: > 100 µM. In the case of `COC(=O)c1ccccc1C1CN=NC12Cc1ccc(C)c(C)c1C2=O` (stereo unspecified), the GI50 is reported as inactive: 42.2 µM. With `Cc1cc2oc3c(ccc(=O)n3C)c(=O)c2c(C)c1Cl` the GI50 was inactive: 65.2 µM. With `COC(=O)C1=CO[C@@H](C)[C@@H]2Cn3ccc4c5ccccc5nc-4c3C[C@H]12` [ALSTONINE HYDROCHLORIDE] the GI50 was inactive: > 100 µM. For `C[C@H]1CC[P+](Cc2ccccc2)(c2ccccc2)C1` (stereo partly specified), the GI50 was inactive: > 100 µM. With `CCOC(=O)C1(C)C2=CC=C(O2)C(C)(C)C2=CC=C(O2)C(C)(C)C2=CC=C(O2)C(C)(C)C2=CC=C1O2` the GI50 was inactive: > 100 µM. With `O=C(CCc1ccccc1)NCCc1ccc(O)c(O)c1` the GI50 was inactive: > 76.2 µM. In the case of `CC(N/N=C(\S)N1CCCC1)c1cccnn1` (stereo unspecified), the GI50 is reported as active: 0.982 µM. `COC(=O)C12CC(c3ccccc31)C1C(=O)OC(=O)C12` (stereo unspecified) was tested, and the GI50 was inactive: > 100 µM. `C/C=C1/C(=Cc2[nH]c(C=c3[nH]/c(=C/C4=NC(=O)C(CC)=C4C)c(C)c3CCC(=O)O)c(CCC(=O)O)c2C)NC(=O)C1C` (stereo unspecified) was tested, and the GI50 was inactive: > 50 µM. In the case of `CS/C(=N\c1nccs1)NC(=O)c1cccc(Cl)c1`, the GI50 is reported as inactive: > 100 µM. `CCOP(=O)(OCC)C1C(CO)OC(n2ccc(=O)[nH]c2=O)C1O` (stereo unspecified) was tested, and the GI50 was inactive: > 100 µM. In the case of `O=[N+]([O-])c1cc(C(F)(F)F)cc2n[se]nc12`, the GI50 is reported as inactive: 15.9 µM. For `N#CCCC1(CCC#N)CCCCCCC(CCC#N)(CCC#N)C(=O)C1=O`, the GI50 was inactive: > 100 µM. For `COc1ccc(C[C@H]2NC[C@H](OC(C)=O)[C@H]2OC(C)=O)cc1`, the GI50 was active: 0.135 µM. In the case of `Cc1csc2nc(-c3cc([N+](=O)[O-])c(Cl)cc3Cl)c(/C=N/N=C(N)N)n12`, the GI50 is reported as inactive: 15 µM. `COc1c(CC(C)O)c2c3c(CC(C)O)c(OC)c(=O)c4c(O)cc5c(c6c(cc(O)c(c1=O)c62)OCO5)c43` (stereo unspecified) [CERCOSPORIN] was tested, and the GI50 was inactive: 1.82 µM. `O=C(O)c1ccccc1Sc1ccccc1[N+](=O)[O-]` was tested, and the GI50 was inactive: > 100 µM. With `CC(C)=CCC[C@@H](C)c1c2nc3ccccc3[nH]c-2c(C)c(=O)c1O` the GI50 was inactive: 1.35 µM. With `Cc1nc(=O)n2c(c1C(=O)Nc1ccc(Cl)cc1)NCCC2` the GI50 was inactive: > 100 µM. `Nc1ccc(-c2nc3ccc(F)cc3s2)cc1I` was tested, and the GI50 was inactive: > 100 µM. `O=C1OC(c2ccccc2)=N/C1=C\c1ccc(Oc2ccc(Cl)c(Cl)c2)cc1` was tested, and the GI50 was inactive: > 100 µM. In the case of `O=C(CCCc1cccc2[nH]c3c(c12)CN(Cc1ccccc1)CC3)c1ccc(F)cc1`, the GI50 is reported as inactive: > 100 µM. In the case of `NS(=O)(=O)OCCCCCCCOS(N)(=O)=O`, the GI50 is reported as inactive: 504 µM. For `Cc1ccccc1[P+](C)(c1ccccc1C)c1ccccc1C`, the GI50 was inactive: 18.4 µM. In the case of `CCOC(=O)c1c(SC(=O)c2cc(OC)c(OC)c(OC)c2)n(-c2ccccc2)c(=S)n(-c2ccccc2)c1=O`, the GI50 is reported as inactive: > 100 µM. In the case of `O=C1Nc2ccc(Br)cc2/C1=C/C(=O)c1ccccc1`, the GI50 is reported as inactive: 17.2 µM. With `O=c1[nH]c(-c2ccc([N+](=O)[O-])cc2)nc2ccc(Cl)cc12` the GI50 was inactive: 97.3 µM. For `Clc1ccccc1/C=c1\nc(-c2ccccc2)n2c1nc1ccccc12`, the GI50 was inactive: 27.9 µM.
